Experimental data as given in PMC4336329 (PLoS ONE, 2015).
Out of some 310,000 compounds screened, about 2,200 (0.71%) showed an effect of 50% or more. The effect is printed as a negative number. The list shows a part of the results.

Biological target: human ether-à-go-go-related gene (hERG) potassium channel (human, UniProt Q12809)
Test: primary screen, population patch clamp on CHO cells stably expressing hERG

Chain of human ether-à-go-go-related gene (hERG) potassium channel (Q12809 whole entry, looked up): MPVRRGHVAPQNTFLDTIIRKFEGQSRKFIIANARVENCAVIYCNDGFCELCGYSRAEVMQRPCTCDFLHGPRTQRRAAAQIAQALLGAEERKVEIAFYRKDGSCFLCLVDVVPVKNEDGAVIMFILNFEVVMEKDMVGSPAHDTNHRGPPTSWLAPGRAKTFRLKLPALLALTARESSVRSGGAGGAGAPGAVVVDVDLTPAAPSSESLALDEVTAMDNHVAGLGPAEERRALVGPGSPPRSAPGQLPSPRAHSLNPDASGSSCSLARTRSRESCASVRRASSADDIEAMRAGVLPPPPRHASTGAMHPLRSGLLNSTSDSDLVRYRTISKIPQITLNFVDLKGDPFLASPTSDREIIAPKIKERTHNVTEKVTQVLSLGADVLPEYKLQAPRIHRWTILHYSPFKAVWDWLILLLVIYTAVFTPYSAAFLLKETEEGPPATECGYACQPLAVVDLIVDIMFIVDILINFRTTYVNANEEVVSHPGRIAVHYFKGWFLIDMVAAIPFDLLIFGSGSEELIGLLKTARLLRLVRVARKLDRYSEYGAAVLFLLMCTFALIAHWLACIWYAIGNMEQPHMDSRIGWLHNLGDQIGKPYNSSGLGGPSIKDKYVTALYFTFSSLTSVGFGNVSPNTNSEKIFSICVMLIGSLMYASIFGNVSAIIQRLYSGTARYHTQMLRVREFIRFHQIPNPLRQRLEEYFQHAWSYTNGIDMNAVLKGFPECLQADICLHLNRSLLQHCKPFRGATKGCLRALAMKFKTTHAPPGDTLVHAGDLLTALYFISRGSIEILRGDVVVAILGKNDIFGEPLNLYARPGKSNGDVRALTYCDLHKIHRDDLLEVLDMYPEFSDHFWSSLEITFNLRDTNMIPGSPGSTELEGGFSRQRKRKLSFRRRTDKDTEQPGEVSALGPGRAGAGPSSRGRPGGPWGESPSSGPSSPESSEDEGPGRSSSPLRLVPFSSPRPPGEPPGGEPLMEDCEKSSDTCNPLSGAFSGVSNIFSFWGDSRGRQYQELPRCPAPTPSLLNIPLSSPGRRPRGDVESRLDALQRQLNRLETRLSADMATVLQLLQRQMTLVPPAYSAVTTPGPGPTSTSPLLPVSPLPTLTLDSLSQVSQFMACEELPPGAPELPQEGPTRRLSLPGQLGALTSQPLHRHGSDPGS

Going from `COc1ccc(C(O)(C(=O)NNc2ccc(C)cc2)c2cccs2)cc1` (stereo not drawn) to `COc1ccc(/C=C(\NC(=O)c2cccs2)C(=O)Nc2cccc3ccccc23)cc1OC`, the “hERG current change (%, negative = inhibition) at 1uM” value falls from 7.81% to 3.26%.

First: CCn1c(CNC(=O)c2cccc(C)c2)nnc1SCC(=O)Nc1nnc(C)s1
Second: CC(=O)N1c2ccc(S(=O)(=O)NCCC(=O)NCCc3cccc(C)c3)cc2CC1C (stereo not drawn)
The “hERG current change (%, negative = inhibition) at 1uM” value of the first is lower: 12.3% for the first, 20.9% for the second.

First: CCOc1ccccc1Oc1coc2cc(OC)ccc2c1=O
Second: COC(=O)c1c(C)n(-c2ccccc2)c2ccc(O)cc12
The “hERG current change (%, negative = inhibition) at 1uM” value of the first is higher: 13.4% for the first, -2.76% for the second.

Compared with `CCCN1CCN(S(=O)(=O)c2cn(C)nc2C)CC1`, `COc1ccccc1C(=O)N/C(=C\c1cn(S(=O)(=O)N(C)C)c2ccccc12)C(=O)N1CCOCC1` is lower in “hERG current change (%, negative = inhibition) at 1uM” value: 18.8% for the first, 16.6% for the second.

Going from `CN(CC(=O)Nc1cccc(F)c1)C(=O)Cn1c(=O)cnc2ccccc21` to `Cc1onc(-c2c(F)cccc2Cl)c1C(=O)OCC(=O)NCc1ccccc1`, the “hERG current change (%, negative = inhibition) at 1uM” value falls from 10.7% to 5.72%.

Going from `N/C(Cc1ccc([N+](=O)[O-])cc1)=N\OC(=O)COc1ccc2ccccc2c1` to `O=C(OCCCc1cc2ccccc2c(=O)o1)c1ccc(C(F)(F)F)cc1`, the “hERG current change (%, negative = inhibition) at 1uM” value falls from 9.59% to 7.12%.

Compared with `OC(CNc1ncnc2sccc12)c1ccccc1` (stereo not drawn), `C=CCn1c(SCn2nnc3ccccc3c2=O)nc2scc(-c3cccs3)c2c1=O` is lower in “hERG current change (%, negative = inhibition) at 1uM” value: 8.3% for the first, 5.88% for the second.

Going from `CN(c1ccc(Cl)cc1)S(=O)(=O)c1nnc(NC(=O)c2ccco2)s1` to `CCc1sc(N(C(=O)Cc2ccccc2)c2ccccc2)nc1-c1ccccc1`, the “hERG current change (%, negative = inhibition) at 1uM” value falls from 13.4% to 10.8%.

Going from `CCCCC1CCC(C(=O)NCC(c2ccco2)N2CCOCC2)CC1` (stereo not drawn) to `CC1CCc2c(sc3nc(SCC(=O)NCc4ccco4)nc(N)c23)C1` (stereo not drawn), the “hERG current change (%, negative = inhibition) at 1uM” value falls from 12.8% to 2.95%.

First: O=c1cc(N2CCOCC2)[nH]c(=O)n1Cc1ccc(F)cc1
Second: O=C(NCc1ccccc1Cl)c1cc(C(=O)C2CC2)c[nH]1
The “hERG current change (%, negative = inhibition) at 1uM” value of the first is higher: 19.6% for the first, 14.5% for the second.

First: CCC(CC)COC(=O)C1=C(C)NC(=O)NC1c1cccc([N+](=O)[O-])c1 (stereo not drawn)
Second: CCOC(=O)C1=C(C)Nc2ncnn2C1c1cc(OC)ccc1OC (stereo not drawn)
The “hERG current change (%, negative = inhibition) at 1uM” value of the first is higher: 13.5% for the first, 10.3% for the second.

Compared with `O=C(Nc1ccc(C(=O)NC2CCCCC2)cc1)c1cncc(Br)c1`, `CCc1c(C)nc(SC(C(=O)O)c2ccccc2)c(C#N)c1C` (stereo not drawn) is higher in “hERG current change (%, negative = inhibition) at 1uM” value: 0.0087% for the first, 5.6% for the second.
